# Test results from article PMC12040169 (PLOS Biology, 2025).
# This is one part of the list.
# Tested on: T1, C. trachomatis L2/434/Bu expressing GFP (CTL2-GFP)
# T1 construct: L2/434/Bu GFP intracellular growth in HeLa cells
# Parameters: species or system HeLa; C. trachomatis total inclusion area by high-content imaging, normalised to DMSO
# Conditions: total inclusion area; 28.5 h, 10 µM; inhibitor
# Outline: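 Post-fluorescence-read fixation, DNA staining with Hoechst and high-content imaging; GFP inclusion area and number per well, and nuclei counts, used as proxies for bacterial growth and host viability.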
row,SMILES,% of control remaining
1,Cn1cc(CCO)c2ccccc21 [CBK081087],104.578
2,CN1CCC(N2CCN(C(=O)c3ccc(-c4ccc(S(C)(=O)=O)cc4)nc3)CC2)CC1 [CBK158862],100.52
3,COc1ccc(S(=O)(=O)NCCNC(=O)c2ccc(-c3cccc(Cl)c3Cl)nc2NCc2cccnc2)cc1 [CBK076436],68.9542
4,COc1ccc(C(=O)C2=C(O)C(=O)N(CCN3CCOCC3)C2c2ccc(Cl)cc2)cc1 (centres unmarked) [CBK264718],121.215
5,Cn1c(=O)n(CC(=O)N2CCCc3ccccc32)c2cccnc21 [CBK283790],81.3059
6,Cc1nc(CCCn2cnc3ncccc3c2=O)sc1C [CBK306953],92.0665
7,COc1cncc(C(NC(=O)c2ccc3c(c2)CCC3)[C@H]2C[C@H](O)C2)c1 (some centres unmarked) [CBK307646],53.7694
8,CC(CCN1CCN(C)CC1)c1ccccc1 (centres unmarked) [CBK261881],104.922
9,CCOC(=O)CN1CCN(C(=O)Nc2ccccc2OC(F)(F)F)CC1 [CBK043656],90.8665
10,O=C(O)COCCn1cc(-c2ccc(Cl)cc2)cn1 [CBK021914],43.7207
11,CN(C(=O)C1CC1)c1nc2c(s1)CCc1c-2cnn1C [CBK281927],76.7944
12,Cn1c(=O)[nH]c(=O)c2c1nc(SCCN1CCOCC1)n2CCCc1ccccc1 [CBK269234],114.078
13,O=C1COc2ccccc2C/C=C/CC2(CCN(C(=O)c3n[nH]c4c3CCC4)CC2)CN1 [CBK292019],93.6025
14,COc1ccc(S(=O)(=O)NC(C)C(=O)Nc2cc(Cl)ccc2OC)cc1 (centres unmarked) [CBK269479],67.0599
15,O=C(c1cncnc1)N1CCC(Cn2cncn2)(C2CCCCC2)CC1 [CBK136823],99.699
16,Cc1[nH]c(=O)c(C#N)cc1C(=O)N(C)Cc1cc(-c2ccncc2)no1 [CBK306859],65.2931
17,Cc1cc(COc2nccnc2N2CCN(Cc3ccc(C(C)C)cc3)CC2)no1 [CBK084186],113.924
18,CCOC(=O)c1ccc(NC(=S)NCCN(CC)CC)cc1 [CBK018358],15.5937
19,CC(C)Cc1noc(CN2CCC(C(=O)NCc3ccco3)CC2)n1 [CBK305995],38.2224
20,COc1cccc(CNC23CC4CC(CC(C4)C2)C3)c1OCc1ccccc1 [CBK268873C],75.097
21,Cc1ccc(Cc2cnc(NC(=O)C3CCOCC3)s2)cc1F [CBK306130],11.7289

row,SMILES,% of control remaining
1,O=C(NCCc1cccs1)Nc1cccc(SC(F)(F)F)c1 [CBK044999],95.7801
2,Cc1ccc(S(=O)(=O)Cc2ccc(C(=O)N3CCN(Cc4ccccc4)CC3)cc2)cc1 [CBK269588],88.9745
3,O=C(Nc1cc2nn(-c3ccccc3)nc2cc1Cl)c1ccc(-c2cccc([N+](=O)[O-])c2)o1 [CBK266271],142.885
4,Cc1ccnc(SCC(=O)N2CCc3ccccc3C2)n1 [CBK288218],86.7051
5,COc1cccc(COc2cncc(Cl)n2)c1OC [CBK176057],57.8556
6,CCOC(=O)c1ccc(-c2ccc(/C=C/c3nn4cnnc4c(O)c3[N+](=O)[O-])o2)cc1 [CBK268409],115.88
7,Cc1cc(CN2CCC(C(=O)c3ccc(F)cc3)CC2)no1 [CBK149121],100.506
8,O=C1C2CCCCC2C(=O)N1c1ccc(Oc2ccc(Br)cc2)cc1 (centres unmarked) [CBK263531],79.7711
9,CC(C)[C@@H](CO)Nc1cc(Cl)nc2ccnn12 [CBK037242],139.637
10,CC1(C)CC(=O)C=C(C(=O)NCc2cccs2)O1 [CBK153292],105.69
11,Cc1nn(C)cc1C(=O)O[C@H]1C[C@@H](c2ccc(F)cc2)N(C)C1=O [CBK283615],55.2516
12,N[C@H]1CC[C@H](N(CCc2ccccc2)C(=O)N[C@@H]2C[C@H]2c2ccccc2)CC1 [CBK000474C],56.9302
13,O=C(c1cnn(C(=O)c2ccc3c(=O)n4c(nc3c2)CCC4)c1)c1ccccc1O [CBK295145],99.9432
14,O=C(COc1ccccc1Cl)NC(=S)Nc1cccc(C(=O)O)c1 [CBK265662],111.076
15,O=C(Nc1ccc(S(=O)(=O)NCCc2ccccc2)cc1)c1ccc2c(c1)OCO2 [CBK265591],82.2807
16,COc1ccc2[nH]cc(CC(=O)NCc3ccc(-c4csnn4)cc3)c2c1 [CBK149313],89.8742
17,CCN(CC)C(=O)CCn1c(-c2ccc(C)nc2)cc2cccnc21 [CBK282150],96.6135
18,COc1ccc(Br)cc1C(=O)NCC1(c2ccccc2)CCOCC1 [CBK067051],81.9957
19,COc1cccc(CN2C(=O)COc3ccc(C(=O)c4cccs4)cc32)c1 [CBK286412],82.4171
20,CS(=O)(=O)c1ccc(NC(=S)N2CCN(c3ccc(F)cc3)CC2)cc1 [CBK300507],91.8967
